Reference: PubChem BioAssay AID1347120 (National Center for Advancing Translational Sciences (NCATS), 2019)
About 930 (0.24%) of roughly 390,000 compounds were called active. The shares of active, inactive and inconclusive entries below differ from those in the screen. Calls come from the whole dose curve; as a rule, active = well fitted activation curve with a large enough effect; inconclusive = small, poorly fitted or top-dose-only effect; inactive = no such curve, though single readings can be large or run the other way. Potencies of inconclusive entries are doubtful fits and often do not repeat.

Assay: qHTS for Suppressors of FUS Proteinopathy: Primary screen using FUS-linked yeast assay; note: nearly all actives have a fitted effect of over 55% in size;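 for growth rescue (activation): plate controls were DMSO vehicle for no effect and reference control for full effect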
Details: S. cerevisiae FUS-expressing, OD600, 24 h; Potency: growth rescue; growth rescue (activation): at 76.6 µM (top of the series)
Method in brief: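 Yeast expressing FUS under galactose induction, OD 0.005 in 2% galactose medium; compounds in a dilution series, 24 h at 30C. Growth rescue by absorbance at 600 nm; CP55940 positive control, DMSO negative.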
Potency is the fitted concentration of half-maximal effect; tags give direction and shape of the fitted curve.

| Compound | growth rescue (activation) | Potency |
| --- | --- | --- |
| COc1ccc(N2CC(NC(=O)Cc3cccs3)CC2=O)cc1 (configuration not stated) | inactive: 14.8% |  |
| CCCCNc1ncnc2c1cnn2-c1ccccc1 | inactive: 1.51% |  |
| O=C(NCc1ccccc1)C(CCc1ccccc1)n1c(=O)c(-c2ccccc2)nc2ccccc21 (configuration not stated) |  | inconclusive: 8.91 µM [activator, partial curve, poor fit] |
| Cc1ccc(C)c(N2CCN(S(=O)(=O)CC34CCC(CC3=O)C4(C)C)CC2)c1 (configuration not stated) |  | inconclusive: 28.2 µM [activator, partial curve, poor fit] |
| COc1ccccc1OCCCCn1c(C2CC(=O)N(c3ccccc3Cl)C2)nc2ccccc21 (configuration not stated) | inactive: -25.5% |  |
| Cc1cccc(-c2nnc(NC(=O)c3ccc(Cl)cc3)o2)c1 | inactive: 7.88% |  |
| Cc1ccc(NC(=O)CN2c3ccccc3S(=O)(=O)c3ccccc32)cc1F |  | inconclusive: 31.6 µM [activator, single point] |
| CN(Cc1ccccc1)Cc1c(O)ccc2c(=O)c(-c3ccccc3)c(C(F)(F)F)oc12 |  | inconclusive: 50.1 µM [activator, single point] |
| CC1CCCC(NC(=O)c2cccc(S(=O)(=O)N3CCN(c4ccccc4)CC3)c2)C1C (configuration not stated) | inactive: -13.3% |  |
| COc1cccc([C@@H]2CC=C(C(=O)O)[C@H](c3ccccc3)N2S(=O)(=O)c2ccc(C)cc2)c1 |  | inconclusive: 28.2 µM [activator, single point] |
| CN1CCc2nc(SCc3ccc(Cl)cc3)c(C#N)c(-c3cccs3)c2C1 |  | inconclusive: 6.31 µM [activator, full curve] |
| Cc1ccccc1C(=O)Oc1cc(-c2ccc3c(c2)OCO3)cc(=O)c2c(C)oc(C)c12 |  | inconclusive: 28.2 µM [activator, single point] |
| Cc1ccccc1-n1c(=O)cc(N2CCc3ccccc3C2)[nH]c1=O |  | inconclusive: 35.5 µM [activator, partial curve, poor fit] |
| CC(C)C[C@@H](COCc1ccc(Cl)cc1)N1CCN(C(=O)c2ccc(Cl)cc2Cl)CCC1=O |  | inconclusive: 17.8 µM [activator, partial curve, poor fit] |
| CC(C)CCNC(=O)Nc1ccc2c(c1)N(C)C(=O)CS2 | inconclusive: 77% [activator] |  |
| Cc1ccc(/C=N\NC(=O)CN2CCN(S(=O)(=O)c3ccc(Br)cc3)CC2)s1 | inactive: 14.9% |  |
| Cc1ccc(CC(SCc2ccccc2)C(=O)O)cc1C (configuration not stated) | inactive: -1.43% |  |
| CN(Cc1ccccc1)C(=O)c1ccc(Nc2nc(C(N)COCc3ccccc3)cs2)nc1 (configuration not stated) |  | inconclusive: 31.6 µM [activator, single point] |
| COc1cccc(-c2ccnc3c(-c4ccccc4)c(C)nn23)c1 |  | inconclusive: 50.1 µM [activator, single point] |
| CC(C)CCNC(=O)c1cnn2c(C(F)(F)F)cc(-c3ccco3)nc12 | inconclusive: 79.7% [activator] |  |
| Cc1cccc(N2CCN(C(=O)COCc3cc(-c4ccc5c(c4)OCO5)on3)CC2)c1C |  | inconclusive: 22.4 µM [activator, partial curve, poor fit] |

| Compound | growth rescue (activation) | Potency |
| --- | --- | --- |
| CCOc1ccc(CCN2C(=S)N([C@@H](CC(C)C)CN3CCCC3CN3C(=S)NC[C@@H]3Cc3ccccc3)C[C@@H]2CC(C)C)cc1 (some centres not stated) |  | inconclusive: 11.2 µM [activator, partial curve, poor fit] |
| Cc1ccc2nc(-c3ccc(NC(=O)COC(=O)c4ccc(Br)o4)cc3)sc2c1 | inactive: 6.32% |  |
| Cc1onc(-c2ccccc2)c1C(=O)Nc1ccc(S(=O)(=O)N2CCCC2)cc1 |  | inconclusive: 14.1 µM [activator, partial curve] |
| COC(=O)c1cn(NC(=O)c2ccc3c(c2)OCO3)c(=O)c2ccccc12 | inconclusive: 73% [activator] |  |
| COc1cccc(C(O)c2nc(-c3ccc(N(C)C)cc3)cs2)c1 (configuration not stated) | inactive: 27.1% |  |
| C=CCNC(=O)c1ccccc1NC(=O)c1cccc2ccccc12 | inconclusive: 61.7% [activator] |  |
| O=C1NC(c2cccnc2)C(C(=O)c2cccs2)C(O)(C(F)(F)F)N1 (configuration not stated) | inconclusive: 58.7% [activator] |  |
| CC(C)(C)S(=O)N1Cc2cc(CO)cc(CCO)c2[C@H]1CCO (some centres not stated) | inactive: -8.44% |  |
| Cc1ccc(CN(N=Nc2nonc2N)c2nonc2N)c(C)c1 |  | inconclusive: 3.55 µM [activator, full curve] |
| CC(C)CCN1C(=O)c2ccc(C(=O)OCC(=O)N(C)C3CCS(=O)(=O)C3)cc2C1=O (configuration not stated) | inactive: 17.3% |  |
| CCOC(=O)/C(=N\Nc1ccccc1)P(=O)(c1ccccc1)c1ccccc1 |  | inconclusive: 28.2 µM [activator, partial curve, poor fit] |
| CCOC(=O)[C@]12CCCC=C1N(Cc1ccc(Cl)cc1Cl)C(=O)[C@H](CC(=O)NCCC(C)C)C2 |  | inconclusive: 35.5 µM [activator, single point] |
| COC(=O)c1cc(C2(c3c[nH]c4ccccc34)CCN(C(=O)OC(C)(C)C)CC2)n2ccccc12 |  | inconclusive: 10 µM [activator, partial curve, poor fit] |
| O=C(Nc1cccc(Cl)c1)Nc1cc(S(=O)(=O)N2CCCCC2)ccc1Cl | inactive: 21.5% |  |
| Cc1[nH]c2ccccc2c1C(=O)CN1C(=O)NC2(CC(C)CC(C)(C)C2)C1=O (configuration not stated) |  | inconclusive: 12.6 µM [activator, partial curve, poor fit] |
| CC(=O)Nc1ccc(-c2ccnc3c2CC(C)(C(=O)Nc2cccc(OC(F)(F)F)c2)O3)cc1 (configuration not stated) |  | inconclusive: 39.8 µM [activator, single point] |
| O=[N+]([O-])c1cccc(-c2c(-c3ccccc3)ncc3ccc(F)cc23)c1 |  | inconclusive: 44.7 µM [activator, single point] |
| CCCN(CC(=O)Nc1ccccc1OC)C(=O)c1cc2ccccc2o1 | inactive: 32.5% |  |
| CC(C)Cc1nc(N2CCN(C(=O)c3ccco3)CC2)c(C#N)c2c1CCCC2 |  | inconclusive: 25.1 µM [activator, partial curve] |
| COc1cccc(-c2csc(N3CCN(C(=S)Nc4cccc(Cl)c4)CC3)n2)c1 | inactive: 5.25% |  |
| COc1ccc(Nc2nc(-c3cccc(OC)c3O)nc3ccccc23)cc1 |  | inconclusive: 22.4 µM [activator, partial curve] |
